{"source": "paper PMC4336329", "about": "(PLoS ONE, 2015)", "note": "The whole screen tested about 310,000 compounds, of which about 14,000 (4.5%) showed an effect of 50% or more. The effect is printed as a negative number. Some of the results follow.", "data": [{"target": "human ether-à-go-go-related gene (hERG) potassium channel (human, UniProt Q12809)", "sequence (Q12809 whole entry, looked up)": "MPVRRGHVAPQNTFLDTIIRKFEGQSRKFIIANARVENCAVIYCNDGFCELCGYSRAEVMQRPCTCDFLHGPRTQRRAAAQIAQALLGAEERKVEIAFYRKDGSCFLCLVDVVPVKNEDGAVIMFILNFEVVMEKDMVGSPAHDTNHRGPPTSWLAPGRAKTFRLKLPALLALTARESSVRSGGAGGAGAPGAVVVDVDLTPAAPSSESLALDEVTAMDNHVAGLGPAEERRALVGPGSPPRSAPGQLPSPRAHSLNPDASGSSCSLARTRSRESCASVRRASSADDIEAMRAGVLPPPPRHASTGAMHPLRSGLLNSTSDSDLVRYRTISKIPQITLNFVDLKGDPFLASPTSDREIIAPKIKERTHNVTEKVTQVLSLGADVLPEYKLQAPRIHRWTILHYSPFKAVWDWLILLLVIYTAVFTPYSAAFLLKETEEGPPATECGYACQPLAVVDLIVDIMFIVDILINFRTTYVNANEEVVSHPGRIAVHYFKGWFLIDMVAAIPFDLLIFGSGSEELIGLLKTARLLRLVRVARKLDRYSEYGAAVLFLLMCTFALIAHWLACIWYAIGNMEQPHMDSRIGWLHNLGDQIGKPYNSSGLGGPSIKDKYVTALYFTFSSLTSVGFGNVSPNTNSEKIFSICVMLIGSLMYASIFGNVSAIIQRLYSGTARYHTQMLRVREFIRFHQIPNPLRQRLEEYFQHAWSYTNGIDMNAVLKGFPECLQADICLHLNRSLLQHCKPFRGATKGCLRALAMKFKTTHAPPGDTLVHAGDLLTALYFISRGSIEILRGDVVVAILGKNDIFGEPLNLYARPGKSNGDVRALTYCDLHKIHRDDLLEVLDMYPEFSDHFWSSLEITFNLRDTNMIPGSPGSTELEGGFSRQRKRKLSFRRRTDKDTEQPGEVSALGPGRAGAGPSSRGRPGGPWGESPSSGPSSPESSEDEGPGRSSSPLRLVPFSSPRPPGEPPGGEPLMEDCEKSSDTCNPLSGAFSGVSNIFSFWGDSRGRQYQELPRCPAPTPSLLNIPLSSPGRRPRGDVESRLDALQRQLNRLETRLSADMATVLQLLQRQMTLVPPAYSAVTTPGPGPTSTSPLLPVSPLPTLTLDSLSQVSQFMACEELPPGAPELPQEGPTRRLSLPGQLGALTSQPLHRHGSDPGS", "assay": "primary screen, population patch clamp on CHO cells stably expressing hERG", "units": {"hERG current change (%, negative = inhibition) at 10uM": "%"}, "values": [{"compound": "O=C(NC1CCCCC1)C(=O)N(Cc1cccnc1)C(C(=O)NCc1ccco1)c1ccccc1", "note": "(centres unmarked);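 also: peak tail current of the secondary pulse compared with the same well before compound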", "hERG current change (%, negative = inhibition) at 10uM": 6.88}, {"compound": "N#Cc1cccc(Nc2c3c(nc4ccccc24)CCC3)c1", "hERG current change (%, negative = inhibition) at 10uM": -72.2}, {"compound": "CC(C)NC(=O)CN(c1cccc([N+](=O)[O-])c1)S(=O)(=O)c1ccccc1", "hERG current change (%, negative = inhibition) at 10uM": 7.99}, {"compound": "CCOc1ccc(S(=O)(=O)N2CCN=C2Cc2ccccc2)cc1C", "hERG current change (%, negative = inhibition) at 10uM": -9.28}, {"compound": "CCN(CC(=O)NCc1ccc(Cl)cc1)C(=O)c1c(C)noc1C", "hERG current change (%, negative = inhibition) at 10uM": -7.88}, {"compound": "CCCCNC(=O)c1onc(CSc2ccccn2)c1C(=O)NCCCC", "hERG current change (%, negative = inhibition) at 10uM": -47.8}, {"compound": "COc1cccc(-c2cc(-c3cccnc3)nc(N)c2C#N)c1", "hERG current change (%, negative = inhibition) at 10uM": -5.85}, {"compound": "Cc1cc(C)n2nc(SCC(=O)c3cc(C)n(-c4cc(C)on4)c3C)nc2n1", "hERG current change (%, negative = inhibition) at 10uM": -67.5}, {"compound": "CC(=O)Nc1c(C(N)=O)oc2ccc(Cl)cc12", "hERG current change (%, negative = inhibition) at 10uM": 6.54}, {"compound": "O=C(CN(C(=O)CSc1nc2ccccc2o1)c1ccccc1)NC1CCCCC1", "hERG current change (%, negative = inhibition) at 10uM": 5.84}, {"compound": "C/C=C/C(=O)OCC(=O)Nc1nc2ccc(C)cc2s1", "hERG current change (%, negative = inhibition) at 10uM": 10.6}, {"compound": "CC1(C)CC(=O)C(N=Nc2cccnc2)=C(O)C1", "hERG current change (%, negative = inhibition) at 10uM": 18.9}, {"compound": "CC1CCC(C(C)C)C(OC(=O)Cn2c(-c3ccc(F)cc3)[n+](C)c3ccccc32)C1.[Cl-]", "note": "(centres unmarked)", "hERG current change (%, negative = inhibition) at 10uM": -76.3}, {"compound": "O=c1[nH]c(=O)n(Cc2ccccc2)c(O)c1C=NCCCn1ccnc1", "hERG current change (%, negative = inhibition) at 10uM": 1.23}, {"compound": "C/C(=N\\NC(=O)c1cccnc1)c1ccc(-n2ccnc2)cc1", "hERG current change (%, negative = inhibition) at 10uM": -25.4}, {"compound": "CS(=O)(=O)N(CC(=O)N1CCc2ccccc2C1)c1cccc([N+](=O)[O-])c1", "hERG current change (%, negative = inhibition) at 10uM": -37.3}, {"compound": "COC(=O)C1=CN(Cc2cccs2)C=C(C(=O)OC)C1c1cccc(Cl)c1", "hERG current change (%, negative = inhibition) at 10uM": 17.8}, {"compound": "Oc1ccccc1N1CCN(c2nc(-c3cccs3)nc3ccccc23)CC1", "hERG current change (%, negative = inhibition) at 10uM": 5.52}, {"compound": "Cc1cc2ncc(C(N)=O)cn2n1", "hERG current change (%, negative = inhibition) at 10uM": 10.8}, {"compound": "N#Cc1ccccc1CSc1nc(O)cc(=O)[nH]1", "hERG current change (%, negative = inhibition) at 10uM": 11.7}, {"compound": "COc1ccc(-c2nc(CS(=O)(=O)CC(=O)NC3CCCCC3C)c(C)o2)cc1", "note": "(centres unmarked)", "hERG current change (%, negative = inhibition) at 10uM": -15}, {"compound": "CSc1nsc(SCC(=O)Nc2cccc(C(=O)O)c2)n1", "hERG current change (%, negative = inhibition) at 10uM": -0.81}, {"compound": "CN(C(=O)C(Cl)Cl)c1ccc(OC(=O)c2ccco2)cc1", "hERG current change (%, negative = inhibition) at 10uM": 10.1}, {"compound": "COc1ccc(/C=N/NC(=O)c2cc3cc(OC)c(OC)cc3[nH]2)cc1", "hERG current change (%, negative = inhibition) at 10uM": -20.7}, {"compound": "Cc1ccc(NC(=O)Nc2ccon2)cc1Cl", "hERG current change (%, negative = inhibition) at 10uM": 16.8}, {"compound": "Oc1c(Br)cc(/C=N/n2c(-c3ccccc3)n[nH]c2=S)c(O)c1Br", "hERG current change (%, negative = inhibition) at 10uM": 10.4}, {"compound": "CC(NC(=O)c1cccc(Cn2cc([N+](=O)[O-])cn2)c1)c1ccc(C(C)(C)C)cc1", "note": "(centres unmarked)", "hERG current change (%, negative = inhibition) at 10uM": -0.951}, {"compound": "CCOC(=O)c1c(CC(C)C)csc1NC=O", "hERG current change (%, negative = inhibition) at 10uM": 7.52}, {"compound": "CCCCCCCNC(=O)CC(NS(=O)(=O)c1ccc(NC(C)=O)cc1)C(C)C", "note": "(centres unmarked)", "hERG current change (%, negative = inhibition) at 10uM": 3.19}, {"compound": "Cc1ccc(C)c(C(=O)COC(=O)c2cc([N+](=O)[O-])ccc2N2CCOCC2)c1", "hERG current change (%, negative = inhibition) at 10uM": -22.5}, {"compound": "CCC(C)NC(=O)/C=C1\\Sc2ccccc2NC1=O", "note": "(centres unmarked)", "hERG current change (%, negative = inhibition) at 10uM": -1.99}, {"compound": "O=C(N/N=C\\c1cccc(OC(=O)c2ccco2)c1)c1ccc2c(c1)OCO2", "hERG current change (%, negative = inhibition) at 10uM": -8.37}, {"compound": "Cn1c(=O)n(CC(=O)[O-])c(=O)c2c1nc1n2CCS1", "hERG current change (%, negative = inhibition) at 10uM": 16.9}, {"compound": "Cc1cccc(NC(=O)C2CCCN(C(=O)Nc3ccc(F)cc3)C2)c1", "note": "(centres unmarked)", "hERG current change (%, negative = inhibition) at 10uM": -8.63}, {"compound": "Cc1cc(-c2ccccc2)n(-c2ccc(C(=O)NC(C)C)cc2)n1", "hERG current change (%, negative = inhibition) at 10uM": 20.7}, {"compound": "CCOC(=O)c1cnc2ccc(OCC)cc2c1N1CCN(c2ccccc2OC)CC1", "hERG current change (%, negative = inhibition) at 10uM": -5.78}, {"compound": "CCC(N1CCOC1=O)S(=O)(=O)c1ccc(C)cc1", "note": "(centres unmarked)", "hERG current change (%, negative = inhibition) at 10uM": 20.9}, {"compound": "COc1ccc(NC(=S)Nc2ccc3nsnc3c2)cc1", "hERG current change (%, negative = inhibition) at 10uM": 9.35}, {"compound": "O=C(Nc1cccnc1)c1cc(Br)c(Br)s1", "hERG current change (%, negative = inhibition) at 10uM": 1.91}, {"compound": "CCCCCOc1ccc2oc(=O)c3c(c2c1)CCCN3C(=O)CN1CCCC(C(=O)OCC)C1", "note": "(centres unmarked)", "hERG current change (%, negative = inhibition) at 10uM": -0.3}, {"compound": "CCOc1cc(C(C(=O)NCC2CCCO2)N(C(=O)Cn2nnc3ccccc32)c2ccc(OC)c(OC)c2)ccc1O", "note": "(centres unmarked)", "hERG current change (%, negative = inhibition) at 10uM": 10.5}, {"compound": "COC(=O)[C@H](Cc1ccccc1)NC(=O)N1CCN(c2ccc(F)cc2)CC1", "hERG current change (%, negative = inhibition) at 10uM": -12}, {"compound": "CCOC(=O)N1CCC(N2CCN(CCC(C)C)C(CCO)C2)CC1", "note": "(centres unmarked)", "hERG current change (%, negative = inhibition) at 10uM": -13.4}, {"compound": "Cl.OC(c1cccc(Cl)c1)c1nccc2ccccc12", "note": "(centres unmarked)", "hERG current change (%, negative = inhibition) at 10uM": 11.5}, {"compound": "Cc1ccc(CC2SC(N=C(N)N)=NC2=O)cc1", "note": "(centres unmarked)", "hERG current change (%, negative = inhibition) at 10uM": 17.4}, {"compound": "O=S(=O)(NCCCc1ccccc1)c1cccc2nsnc12", "hERG current change (%, negative = inhibition) at 10uM": -25.9}, {"compound": "CCc1ccc(-c2nc(CSCC(=O)N3CCN(c4ccccn4)CC3)c(C)o2)cc1", "hERG current change (%, negative = inhibition) at 10uM": -50.7}, {"compound": "CCn1c(SCC(N)=O)nnc1-c1cc2c(C)nn(-c3ccccc3)c2s1", "hERG current change (%, negative = inhibition) at 10uM": -22.8}, {"compound": "Cn1cnnc1SCC(=O)Nc1ccc(Oc2ccccc2)cc1", "hERG current change (%, negative = inhibition) at 10uM": -15.7}, {"compound": "CCN(CC(=O)Nc1c(F)cccc1F)C(=O)Cn1[nH]c(=O)c2ccccc2c1=O", "hERG current change (%, negative = inhibition) at 10uM": -8.52}, {"compound": "CCCCN(C(=O)CSc1nnc2ccccn12)c1c(N)n(Cc2ccccc2)c(=O)[nH]c1=O", "hERG current change (%, negative = inhibition) at 10uM": 15.7}, {"compound": "Cc1cc(=O)oc2cc(OCC(=O)Nc3nccs3)ccc12", "hERG current change (%, negative = inhibition) at 10uM": 12.1}, {"compound": "O=C(O)CN1CCN(Cc2ccccc2)C1=O", "hERG current change (%, negative = inhibition) at 10uM": 7.61}, {"compound": "Cc1ccc(SCc2c(C(=O)N/N=C/c3cccnc3)nnn2-c2nonc2N)cc1", "hERG current change (%, negative = inhibition) at 10uM": 11.2}, {"compound": "CC(C)(C)c1ccc(C(=O)Nc2ccc(O)c3c(=O)cc(-c4cccc(Cl)c4)oc23)cc1", "hERG current change (%, negative = inhibition) at 10uM": 17.7}, {"compound": "CC1CCN(C(=O)C2CCCN(S(=O)(=O)c3ccc4c(c3)CC(C)N4C(=O)C3CC3)C2)CC1", "note": "(centres unmarked)", "hERG current change (%, negative = inhibition) at 10uM": -0.127}]}]}
